Experimental data taken from the BET-seq Pho4 binding data (Le et al. 2018).
This is one part of the list. Values were computed here from the reads of four pooled replicates and scatter widely.

molecular target: T1, Pho4 (S. cerevisiae) (UniProt P07270); assay: relative binding free energy (BET-seq); higher = weaker binding; conditions: reference: library average
T1 sequence: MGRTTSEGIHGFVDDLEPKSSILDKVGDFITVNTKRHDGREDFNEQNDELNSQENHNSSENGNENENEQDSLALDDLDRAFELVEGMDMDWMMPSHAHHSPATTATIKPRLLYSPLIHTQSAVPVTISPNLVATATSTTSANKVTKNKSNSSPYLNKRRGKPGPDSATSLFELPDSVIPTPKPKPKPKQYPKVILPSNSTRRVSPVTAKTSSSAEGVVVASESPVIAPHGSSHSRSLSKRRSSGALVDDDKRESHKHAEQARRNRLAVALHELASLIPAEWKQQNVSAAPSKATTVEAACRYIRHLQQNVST

| Sequence | relative binding free energy [kcal/mol] |
| --- | --- |
| TGTTCCACGTGGAAGG | 0 |
| TGGTACACGTGCGGGC | 0.08 |
| TGAGCCACGTGTTGAT | 0.03 |
| GTTATCACGTGGGACG | 0.01 |
| CTACGCACGTGGGGTA | -0.25 |
| TGATGCACGTGGCTAT | -0.05 |
| CAGGGCACGTGGGGAG | -0.25 |
| TTGTTCACGTGCGGAC | 0.45 |
| TTGTCCACGTGAATTG | 0.32 |
| GAAAGCACGTGGTTTT | -0.02 |
| GTAGTCACGTGTAGCT | 0.25 |
| TGGCGCACGTGGATGC | -0.04 |
| TGTTGCACGTGTAAGA | -0.02 |
| TAGTGCACGTGCGATT | -0.02 |
| CGGCTCACGTGTTGTA | 0.3 |
| TGTTGCACGTGCAGTT | -0.02 |
| GGTTGCACGTGGGCTG | -0.16 |
| GTACTCACGTGTGATG | 0.14 |
| CCGGTCACGTGTAGGG | 0.05 |
| AATTTCACGTGTATGT | 0.17 |
| ACGTTCACGTGGAGGT | 0.03 |
| GCGGACACGTGAGTAG | 0.41 |
| GTCGTCACGTGTGGTG | 0.15 |

| Sequence | relative binding free energy [kcal/mol] |
| --- | --- |
| CGTGGCACGTGAGGTG | 0.1 |
| GGATGCACGTGAGAGG | 0.21 |
| CAGTTCACGTGTTTAT | 0.17 |
| CCAGGCACGTGGAGGG | -0.18 |
| TTTTTCACGTGCAGGT | 0.3 |
| AGGAACACGTGCAGGA | 0.25 |
| TTAAGCACGTGATAGA | 0 |
| AATCGCACGTGGGTTT | -0.1 |
| AAACGCACGTGTTGTG | -0.04 |
| GGTAACACGTGCAGGG | -0.04 |
| TAATTCACGTGCGATG | 0.24 |
| GTCCGCACGTGATTGT | 0.19 |
| GAGGTCACGTGCGTAG | 0 |
| AGTAACACGTGTATTT | -0.11 |
| ATTATCACGTGTTAAA | 0.2 |
| TAGTACACGTGATTTT | 0.19 |
| TGGAGCACGTGGGTAG | -0.18 |
| AATAGCACGTGTATTA | -0.05 |
| GAGGGCACGTGACGCG | 0.12 |
| CTTGGCACGTGTTTTG | -0.08 |
| CATTTCACGTGCGGTT | 0.23 |
| TGGTGCACGTGGTGTT | -0.1 |
| GCCTTCACGTGGGTGG | 0.23 |

| Sequence | relative binding free energy [kcal/mol] |
| --- | --- |
| CTTGTCACGTGGCGTG | 0.06 |
| TTTCTCACGTGGGTCT | 0.17 |
| GGGGTCACGTGGTGTC | 0.07 |
| TTATGCACGTGGTGCA | -0.11 |
| ACGGTCACGTGTAATG | 0.09 |
| CTGGGCACGTGTCGTG | 0.01 |
| ATCGTCACGTGAGTTG | 0.1 |
| CGAAGCACGTGGTGTT | -0.16 |
| TTGATCACGTGCTGGG | -0.03 |
| CTATGCACGTGGAAGT | 0.05 |
| GTATCCACGTGCGGGG | 0.01 |
| TGGAGCACGTGGAATA | 0 |
| TGATTCACGTGGTGGC | 0.17 |
| CTCTGCACGTGTGGGG | -0.01 |
| TTGGGCACGTGCGGTT | -0.14 |
| CGGGGCACGTGTTTGC | -0.21 |
| TAATTCACGTGGCGTG | 0.11 |
| GAGAGCACGTGAGTAG | 0.22 |
| ATCAGCACGTGGGGGC | -0.14 |
| TTGAGCACGTGGTAAG | 0.02 |
| TCTTACACGTGTGGGT | 0.12 |
| TTTGGCACGTGTGGCA | -0.06 |
| GTGAGCACGTGTGTGA | -0.05 |

| Sequence | relative binding free energy [kcal/mol] |
| --- | --- |
| CTTGTCACGTGAATTA | 0.36 |
| TAGAGCACGTGATGTG | 0.07 |
| GAGTCCACGTGGGGTA | 0.01 |
| ATGTGCACGTGGGAGC | -0.22 |
| CGTAGCACGTGGGGGC | -0.25 |
| GCTGCCACGTGGTTGT | -0.02 |
| ATTTTCACGTGGAAAG | 0.27 |
| ATTGACACGTGGGGGA | -0.1 |
| CTTGACACGTGAAGGG | 0.18 |
| GGGCTCACGTGCATGT | 0.26 |
| TTTAGCACGTGGTTTA | -0.11 |
| TGCTACACGTGGATTG | 0.08 |
| CGGGACACGTGAGTGG | 0.29 |
| TTTCACACGTGTTTGA | 0 |
| AAAAACACGTGGGGTT | 0.03 |
| ATTTTCACGTGGGGGC | 0.23 |
| GATGGCACGTGGTCTA | 0.04 |
| AGGTTCACGTGATGTC | 0.45 |
| GGAGCCACGTGTGGAT | -0.01 |
| CACGTCACGTGTTGTT | -0.02 |
| TAGGTCACGTGATCGT | 0.14 |
| AGGGGCACGTGCGGAA | -0.2 |
| GTCGTCACGTGCGAGT | 0.04 |

| Sequence | relative binding free energy [kcal/mol] |
| --- | --- |
| TAGATCACGTGCGGTG | 0.1 |
| GCGGGCACGTGCGGGA | -0.23 |
| TTTGACACGTGTTTAG | 0.04 |
| GGAGTCACGTGGGGCA | 0.1 |
| TCACTCACGTGGGTTG | 0.02 |
| AGTAGCACGTGTAGCG | 0.05 |
| ATTTGCACGTGAGCTT | 0.19 |
| GGCAGCACGTGGTTTT | -0.02 |
| CAAGGCACGTGAGGCG | 0.07 |
| AATTCCACGTGGGAGG | -0.03 |
| ATTCGCACGTGGAGGT | 0.02 |
| ATGCACACGTGGTGCG | -0.01 |
| CGGCGCACGTGTGATG | 0.06 |
| AATGTCACGTGAATGA | 0.35 |
| TGGTACACGTGTGGTC | 0.08 |
| TAATTCACGTGGGAGT | 0.35 |
| GACGGCACGTGTTGTG | 0.05 |
| ACGAGCACGTGGTGAG | -0.06 |
| ATTATCACGTGGCGTC | 0.23 |
| ATAGGCACGTGTTTTT | -0.01 |
| TTTTGCACGTGTCGAA | -0.13 |
| TATGCCACGTGCAGGT | 0.01 |
| TAAATCACGTGAAAGG | 0.37 |
